{
  "source": "patent US20230121867A1",
  "about": "“COMPOSITIONS AND METHODS FOR TREATING DISEASES AND CONDITIONS BY DEPLETION OF MITOCHONDRIAL OR GENOMIC DNA FROM CIRCULATION” (Cedars-Sinai Medical Center, priority 2019, published 2023)",
  "key": {"[1]": {"test_system": "LNCaP, PC3, and TRAMPC2 cells", "assay": "mtDNA secretion by PCa cell lines treated with docetaxel", "format": "cell-based"}, "[2]": {"test_system": "xenografts of CAF and PC3 cells", "assay": "Subcutaneous xenograft of PC3 and CAF in male nude mice"}, "[3]": {"test_system": "LNCaP and PC3", "assay": "Western blot of autophagy, mitophagy and ER-stress markers after docetaxel", "conditions": "cytoplasmic and mitochondrial subcellular fractions"}},
  "data": [
    {"compound": "CC(=O)O[C@@]12CO[C@@H]1C[C@H](O)[C@@]1(C)C(=O)[C@H](O)C3=C(C)[C@@H](OC(=O)[C@H](O)[C@@H](NC(=O)OC(C)(C)C)c4ccccc4)C[C@@](O)([C@@H](OC(=O)c4ccccc4)[C@H]21)C3(C)C", "note": "[docetaxel]", "values": [
      {"measurement": "PCa release of mtDNA, potentiation", "setting": "[1]", "result": "over 5 fold"},
      {"measurement": "tumor volume", "setting": "[2]; docetaxel 6 mg/kg/week alone, compared to vehicle", "result": "not significantly reduced"},
      {"measurement": "activation of TAK1, AKT, and ERK1/2 in tumor tissues", "setting": "[2]; western blot, docetaxel-treated mice compared to vehicle", "result": "activation of TAK1, AKT, and ERK1/2"},
      {"measurement": "LC3 activation, p62, and beclin expression", "setting": "[3]", "result": "elevated LC3 activation, p62, and beclin expression"}
    ]}
  ]
}
